According to the RNAGym collection of RNA variant scans (doi:10.7554/elife.90254):
The source gives no read counts; variants with many changes may rest on few reads.

B1: LINE1-full (parent)
chain: UACGUAGGUGGUUUUCCCCUGAUAGUGCUAAGGGGGCCUGGAAGUUUGGACUGGGCAGAGCUCAACACAGCGUGGCAAAGUGGCUGUGGCUAGACUGCCUCUCUGGAUUCCUCGUCACUCAGCAGGGCAUCUCUGAGAGAAAUGCC

Variants of: B1
Assay: self-cleavage, relative activity (ratio to wild type); higher = more cleavage; in vitro, sequencing; the parent is a self-cleaving ribozyme

Variant | self-cleavage
A117G A121U A138G A142G | 1.3
U132A A138G A140G | 1.61
U102A C111U U134A | 1.34
U100C A138C U143A | 1.74
U109A G114A A124G | 1.25
U96C U100C U109C A141G | 0
A129G A138U U143C | 1.61
U119A G127A U130G | 1.82
C111A A136G G144A | 1.63
A92U U115A A142G | 0.56
U100A U119A A140G | 0.98
A94G U104C U108C A140G | 1.15
U109C C111U A136G | 1.2
U109A U132A A138G | 2.26
A94G U104C U109C A121U | 0
U102C U134C A141G | 1.58
G126A A138G A140G | 0.44
C113U U119C A136G U143C | 1.65
U96C A107C A140G | 0
U112C A124G U143C | 1.4
U102C U130C A142G | 0.84
A92G U104C A117U | 0.09

Variant | self-cleavage
A92G G106U U132A | 0.04
U119C G135A C145A | 1.76
C99U A121G U134C G137U | 0.57
A107U A124G C128U | 1.3
U119A C131U U134C | 1.07
U119A C120U A124G | 0.93
A92U C95U A129G | 0.19
A117U A124U U130A | 1.45
U130C A136G A141G | 2.03
U102A U119A A140G | 1.58
A107U U115C A117C | 1.84
A121U U130A A142G | 1.19
U112C A117G A129C | 1.67
A117G A121U A142G | 2.48
A107C U108G A124U | 0.48
U109C U115C A129G | 0
A92G U100A C103U | 0.1
U96A U130C A140G | 0.05
U119A A129G U134C | 1.58
U108A U115G A117U | 1.47
G114A A138C A142C | 0
U109A U115C A138G | 2.45

Variant | self-cleavage
A94G U100C U134G A141G | 0.4
A92G A94U A121U | 0.06
G93U U104C C146U | 0.05
U132C A140G U143C | 1.45
G105A U115C A121G | 1.98
A94G U100C U108C | 0.37
U100C A117U U130C | 2.43
U108C U109C U115C | 2.04
U104A A136G U143C | 1.36
U96A C110G A129G U130C A140U | 0
C113U A140G U143C | 0.37
U100A U115C A141G | 1.61
A107G U115C U143C | 0
A124U A138G U143A | 1.97
U104A U115C U143C | 0.41
G125A U134C U143C | 1.86
A107G A124G A136G | 0.84
A92U U100C A117G G125U | 2.12
U108C C118A A129U U134C | 1.8
U109A A124G A136G A138G | 2.04
A124G C131U A140G A141G | 0.8
